Among the data in US9873709B2 (priority 2013, dated 2018) are Ki values, retold here.

By Ki is commonly meant the equilibrium dissociation constant of an inhibitor or competing ligand from its target.

The experiment concerns the target isolated recombinant JAK1 kinase domain (Homo sapiens (Human), UniProt P23458). The conditions noted are these: read-out: JAK1 Ki; isolated recombinant JAK1 kinase domain, 25 μM ATP.
For `CCOC(=O)N1CC=C(c2cccn3nc(Nc4ccc(C(=O)N(CCOC)C5CCN(C)CC5)cc4)nc23)CC1` [Example 2-364, ethyl 4-[2-[4-[2-methoxyethyl-(1-methyl-4-piperidyl)carbamoyl]anilino]-[1,2,4]triazolo[1,5-a]pyridin-8-yl]-3,6-dihydro-2H-pyridine-1-carboxylate], the Ki amounted to 5.69 nM. The same measure for `CCOC(=O)N1CC=C(c2cccn3nc(Nc4ccc(C(=O)N(C)C5CCN(C(C)C)CC5)cc4)nc23)CC1` [Example 2-365, ethyl 4-[2-[4-[(1-isopropyl-4-piperidyl)-methyl-carbamoyl]anilino]-[1,2,4]triazolo[1,5-a]pyridin-8-yl]-3,6-dihydro-2H-pyridine-1-carboxylate]: 4.34 nM; for `CCOC(=O)N1CC=C(c2cccn3nc(Nc4ccc(C(=O)N5CC6CC5CN(C)C6)cc4)nc23)CC1` (stereo not shown) [Example 2-366, ethyl 4-[2-[4-(3-methyl-3,6-diazabicyclo[3.2.1]octane-6-carbonyl)anilino]-[1,2,4]triazolo[1,5-a]pyridin-8-yl]-3,6-dihydro-2H-pyridine-1-carboxylate]: 3.66 nM. The same measure for `CCOC(=O)N1CC=C(c2cccn3nc(Nc4ccc(C(=O)N5CCN(C6CC6)CC5)cc4)nc23)CC1` [Example 2-367, ethyl 4-[2-[4-(4-cyclopropylpiperazine-1-carbonyl)anilino]-[1,2,4]triazolo[1,5-a]pyridin-8-yl]-3,6-dihydro-2H-pyridine-1-carboxylate]: 4.62 nM. As for `CCOC(=O)N1CC=C(c2cccn3nc(Nc4ccc(C(=O)N5CCN(C6CCC6)CC5)cc4)nc23)CC1` [Example 2-368, ethyl 4-[2-[4-(4-cyclobutylpiperazine-1-carbonyl)anilino]-[1,2,4]triazolo[1,5-a]pyridin-8-yl]-3,6-dihydro-2H-pyridine-1-carboxylate], the inhibition constant (Ki) was determined as 3.57 nM. Under `CCOC(=O)N1CC=C(c2cccn3nc(Nc4ccc(C(=O)N5CCCC6(CCCN(C)C6)C5)cc4)nc23)CC1` (stereo not shown) [Example 2-369, ethyl 4-[2-[4-(8-methyl-2,8-diazaspiro[5.5]undecane-2-carbonyl)anilino]-[1,2,4]triazolo[1,5-a]pyridin-8-yl]-3,6-dihydro-2H-pyridine-1-carboxylate] stands 2.62 nM; under `CCOC(=O)N1CC=C(c2cccn3nc(Nc4ccc(C(=O)N5C[C@@H]6CCN[C@@H]6C5)cc4)nc23)CC1` [Example 2-371, ethyl 4-[2-[4-[(3aS,6aS)-2,3,3a,4,6,6a-hexahydro-1H-pyrrolo[2,3-c]pyrrole-5-carbonyl]anilino]-[1,2,4]triazolo[1,5-a]pyridin-8-yl]-3,6-dihydro-2H-pyridine-1-carboxylate], 2.68 nM; under `CCOC(=O)N1CC=C(c2cccn3nc(Nc4ccc(C(=O)N5CC6(CCNC6)C5)cc4)nc23)CC1` [Example 2-372, ethyl 4-[2-[4-(2,7-diazaspiro[3.4]octane-2-carbonyl)anilino]-[1,2,4]triazolo[1,5-a]pyridin-8-yl]-3,6-dihydro-2H-pyridine-1-carboxylate], 1.37 nM. The same measure for `CCOC(=O)N1CC=C(c2cccn3nc(Nc4ccc(C(=O)N5CCCC56CCNCC6)cc4)nc23)CC1` [Example 2-373, ethyl 4-[2-[4-(1,8-diazaspiro[4.5]decane-1-carbonyl)anilino]-[1,2,4]triazolo[1,5-a]pyridin-8-yl]-3,6-dihydro-2H-pyridine-1-carboxylate]: 2.76 nM.

On to `CCOC(=O)N1CC=C(c2cccn3nc(Nc4ccc(C(=O)N(C)CCN)cc4)nc23)CC1` [Example 2-374, ethyl 4-[2-[4-[2-aminoethyl(methyl)carbamoyl]anilino]-[1,2,4]triazolo[1,5-a]pyridin-8-yl]-3,6-dihydro-2H-pyridine-1-carboxylate], for which the inhibition constant (Ki) was 2.52 nM. The same measure for `CCOC(=O)N1CC=C(c2cccn3nc(Nc4ccc(C(=O)N5CCC6(CCCCN6)C5)cc4)nc23)CC1` (stereo not shown) [Example 2-376, ethyl 4-[2-[4-(2,6-diazaspiro[4.5]decane-2-carbonyl)anilino]-[1,2,4]triazolo[1,5-a]pyridin-8-yl]-3,6-dihydro-2H-pyridine-1-carboxylate]: 2.54 nM; for `O=C(CCC(F)(F)F)N1CC=C(c2cccn3nc(Nc4ccc(C(=O)N5CCC6(CCCN6)C5)cc4)nc23)CC1` (stereo not shown) [Example 2-377, 1-[4-[2-[4-(1,7-diazaspiro[4.4]nonane-7-carbonyl)anilino]-[1,2,4]triazolo[1,5-a]pyridin-8-yl]-3,6-dihydro-2H-pyridin-1-yl]-4,4,4-trifluoro-butan-1-one]: 1.1 nM. Under `O=C(CCC(F)(F)F)N1CC=C(c2cccn3nc(Nc4ccc(C(=O)N5CCC6(CCCCN6)C5)cc4)nc23)CC1` (stereo not shown) [Example 2-378, 1-[4-[2-[4-(2,6-diazaspiro[4.5]decane-2-carbonyl)anilino]-[1,2,4]triazolo[1,5-a]pyridin-8-yl]-3,6-dihydro-2H-pyridin-1-yl]-4,4,4-trifluoro-butan-1-one] stands 1.53 nM; under `O=C(CCC(F)(F)F)N1CC=C(c2cccn3nc(Nc4ccc(C(=O)N5CCC6(CNC6)C5)cc4)nc23)CC1` [Example 2-379, 1-[4-[2-[4-(2,6-diazaspiro[3,4]octane-6-carbonyl)anilino]-[1,2,4]triazolo[1,5-a]pyridin-8-yl]-3,6-dihydro-2H-pyridin-1-yl]-4,4,4-trifluoro-butan-1-one], 1.46 nM.

`O=C(CCC(F)(F)F)N1CC=C(c2cccn3nc(Nc4ccc(C(=O)N5CCCC6(CCCCN6)C5)cc4)nc23)CC1` (stereo not shown) [Example 2-383, 1-[4-[2-[4-(1,8-diazaspiro[5.5]undecane-8-carbonyl)anilino]-[1,2,4]triazolo[1,5-a]pyridin-8-yl]-3,6-dihydro-2H-pyridin-1-yl]-4,4,4-trifluoro-butan-1-one]: the Ki was determined as 1.55 nM. The same measure for `O=C(CCC(F)(F)F)N1CC=C(c2cccn3nc(Nc4ccc(C(=O)N5CCCC6(CCCN6)CC5)cc4)nc23)CC1` (stereo not shown) [Example 2-384, 1-[4-[2-[4-(1,9-diazaspiro[4.6]undecane-9-carbonyl)anilino]-[1,2,4]triazolo[1,5-a]pyridin-8-yl]-3,6-dihydro-2H-pyridin-1-yl]-4,4,4-trifluoro-butan-1-one]: 1.73 nM; for `O=C(NCC1CCCCN1)c1ccc(Nc2nc3c(C4=CCN(C(=O)CCC(F)(F)F)CC4)cccn3n2)cc1` (stereo not shown) [Example 2-385, N-(2-piperidylmethyl)-4-[[8-[1-(4,4,4-trifluorobutanoyl)-3,6-dihydro-2H-pyridin-4-yl]-[1,2,4]triazolo[1,5-a]pyridin-2-yl]amino]benzamide]: 1.06 nM. Under `O=C(CCC(F)(F)F)N1CC=C(c2cccn3nc(Nc4ccc(C(=O)N5CCC6CNCC65)cc4)nc23)CC1` (stereo not shown) [Example 2-386, 1-[4-[2-[4-(3,3a,4,5,6,6a-hexahydro-2H-pyrrolo[2,3-c]pyrrole-1-carbonyl)anilino]-[1,2,4]triazolo[1,5-a]pyridin-8-yl]-3,6-dihydro-2H-pyridin-1-yl]-4,4,4-trifluoro-butan-1-one] stands 1.21 nM; under `O=C(CCC(F)(F)F)N1CC=C(c2cccn3nc(Nc4ccc(C(=O)N5C[C@@H]6CCN[C@@H]6C5)cc4)nc23)CC1` [Example 2-387, 1-[4-[2-[4-[(3aS,6aS)-2,3,3a,4,6,6a-hexahydro-1H-pyrrolo[2,3-c]pyrrole-5-carbonyl]anilino]-[1,2,4]triazolo[1,5-a]pyridin-8-yl]-3,6-dihydro-2H-pyridin-1-yl]-4,4,4-trifluoro-butan-1-one], 0.88 nM.

Consider `O=C(NCC1CC12CCNCC2)c1ccc(Nc2nc3c(C4=CCN(C(=O)CCC(F)(F)F)CC4)cccn3n2)cc1` (stereo not shown) [Example 2-388, N-(6-azaspiro[2.5]octan-2-ylmethyl)-4-[[8-[1-(4,4,4-trifluorobutanoyl)-3,6-dihydro-2H-pyridin-4-yl]-[1,2,4]triazolo[1,5-a]pyridin-2-yl]amino]benzamide], for which the inhibitory constant (Ki) turned out to be 1.14 nM. As to `CN1CCCC(CN(C)C(=O)c2ccc(Nc3nc4c(C5=CCN(C(=O)CCC(F)(F)F)CC5)cccn4n3)cc2)C1` (stereo not shown) [Example 2-389, N-methyl-N-[(1-methyl-3-piperidyl)methyl]-4-[[8-[1-(4,4,4-trifluorobutanoyl)-3,6-dihydro-2H-pyridin-4-yl]-[1,2,4]triazolo[1,5-a]pyridin-2-yl]amino]benzamide], the Ki turned out to be 1.34 nM. Under `O=C(CCC(F)(F)F)N1CC=C(c2cccn3nc(Nc4ccc(C(=O)N5CCCC(O)(CN6CCCC6)CC5)cc4)nc23)CC1` (stereo not shown) [Example 2-390, 4,4,4-trifluoro-1-[4-[2-[4-[4-hydroxy-4-(pyrrolidin-1-ylmethyl)azepane-1-carbonyl]anilino]-[1,2,4]triazolo[1,5-a]pyridin-8-yl]-3,6-dihydro-2H-pyridin-1-yl]butan-1-one] stands 2.02 nM; under `CN1CCC2(CC1)CN(C(=O)c1ccc(Nc3nc4c(C5=CCN(C(=O)CCC(F)(F)F)CC5)cccn4n3)cc1)C2` [Example 2-391, 4,4,4-trifluoro-1-[4-[2-[4-(7-methyl-2,7-diazaspiro[3.5]nonane-2-carbonyl)anilino]-[1,2,4]triazolo[1,5-a]pyridin-8-yl]-3,6-dihydro-2H-pyridin-1-yl]butan-1-one], 0.71 nM. Take `O=C(CCC(F)(F)F)N1CC=C(c2cccn3nc(Nc4ccc(C(=O)N5CC6(CNC6)C5)cc4)nc23)CC1` [Example 2-392, 1-[4-[2-[4-(2,6-diazaspiro[3.3]heptane-2-carbonyl)anilino]-[1,2,4]triazolo[1,5-a]pyridin-8-yl]-3,6-dihydro-2H-pyridin-1-yl]-4,4,4-trifluoro-butan-1-one]: the Ki came out at 1.18 nM. As for `CN1CCN(C2CCN(C(=O)c3ccc(Nc4nc5c(C6=CCN(C(=O)CCC(F)(F)F)CC6)cccn5n4)cc3)CC2)CC1` [Example 2-393, 4,4,4-trifluoro-1-[4-[2-[4-[4-(4-methylpiperazin-1-yl)piperidine-1-carbonyl]anilino]-[1,2,4]triazolo[1,5-a]pyridin-8-yl]-3,6-dihydro-2H-pyridin-1-yl]butan-1-one], the inhibition constant Ki worked out at 0.96 nM.
